Where two headings read alike, the source gives them in different places.
B1: DOMAIN_22615 (protein, listed as Homo sapiens)
chain: PQKSVTFEDVAVYFTQAEWDGLSPAQRTLYRDVMLENYGNVASLGFPLLKPAVISQLEGGSELGGSSPLAAGTGLQGLQTV
B2: DOMAIN_22782 (protein, listed as Vombatus ursinus)
chain: FQGSVTFQDVAVVFTPEEWGHLEPSQKELYREVMLENFRNLVCLGLVVYKPSVIYQLERGGAPWKPGGGGRRSGSSDWETL
B3: DOMAIN_23109 (protein, listed as Mustela putorius)
chain: LQGLLTFRDVAIEFSEEEWGCLTHTQRQLYRDVMLENYGHLHFLGLLLSKPDLIMFLEQEKQLWDVKRKESRGFSPESQCL
B4: DOMAIN_623 (protein, listed as Pan paniscus)
chain: MSLGSELFRDVAIVFSQEEWQWLAPAQRDLYRDVMLETYSNLVSLGLAVSKPDVISFLEQGKEPWMVERVVSGGLCPGAKG
B5: DOMAIN_624 (protein, listed as Pan paniscus)
chain: MSLGSELFRDVAIVFSQEEWQWLAPAQRDLYRDVMLETYSNLVSLGLAVSKPDVISFLEQGKEPWMVERVVSGGLCPVLES
B6: DOMAIN_22520 (protein, listed as Callorhinus ursinus)
chain: SQEPVTFEDVAVYFTQNQWASLDPMQRALYLEVMLENYANITSLAALPFPKPDLILQLEQGEAPWGLDPWTPLDGEALGGV
B7: DOMAIN_22768 (protein, listed as Ursus maritimus)
chain: SQEPVTFEDVAVYFTQNQWASLDPTQRALYREVMLENYANITSLAAFPFPKPDLILQLERGEARWGLDPWIAIEGEALGGV
B8: DOMAIN_22928 (protein, listed as Tupaia chinensis)
chain: VQGSVTFRDVAVLFSQDEWLHLDTAQRTLYREVMLENYSNLVSLGILFSKPKVISQLEQGQDPWKVEHGAPQGTCPGWESL
B9: DOMAIN_23082 (protein, listed as Mustela putorius)
chain: SKVPVTFGDLAIYFSQEEWEWLSPIQKDLYEDVMLENYQNLVSVGLSFRRPNVITLLEKGRAPWMVEPVRKRRGMDSGSKC
B10: DOMAIN_23136 (protein)
chain: SQGLVTFGDVAVDFSQEEWEWLDCAQRTLYRSVMLENYRSLVSLGLCVSKPEMISSLEQRKEPWTVKRKWTRGQCPDSEAV
modifications: Vicugna pacos
B11: DOMAIN_23050 (protein, listed as Balaenoptera acutorostrata)
chain: MDSVTIEDVAVDFTLEEWALLDPSQRKLYRDVMQETLRNLAAVGAKREYHDIEDQYKNQGRKLRTFMVERFCKSKDISLCG
B12: DOMAIN_22518 (protein)
chain: KEAFMAFGDVAVDFTQEEWRLLSPAQRTLHREVMLETYNHLVSLEIPFSKPKLISQLERGEEPWIKERQRPLSLCPAGSKL
modifications: Lipotes vexillifer
B13: DOMAIN_22937 (protein)
chain: PQVLVSFEDVAVFLSREEWGCLGPAQRGLYRDVMLETYRNLISLGFQDSKPDVISKLEEGEEPWAPYSPRIEEGWIQSHGS
modifications: Ursus arctos
B14: DOMAIN_23013 (protein, listed as Cervus elaphus)
chain: TSEPVSFADVAVYFSQEEWGCLQPAQRALYRDVMRETYGHLGALGFRGTKPALISWVEEEAELWGPDAGPPEMGECLTEAD
B15: DOMAIN_23012 (protein, listed as Cervus elaphus)
chain: SEGLVTFGDVAVDFSQEEWEWLNPAQRSLYRKVMLDNYRSLVSLGVSVSKPDVISLLEQGKEPWLVKEEGPRGARSDWEYA
B16: DOMAIN_23009 (protein, listed as Saimiri boliviensis)
chain: PQESVAFDDVAVYFTKKEWAIMVPDQRALYRDVMLENYEAVAFVVPPTSKPALVSHLEQGKEPCFTQPQGVLSRSNWRAGF
B17: DOMAIN_22479 (protein, listed as Aotus trivirgatus)
chain: RPRALKFVDVAVYFSSEEWGCLRPAQRALYRDVMRETYGHLGALGFPGPKPALISWMEQESEAWSSAAQDPEKGENLGGAR
B18: DOMAIN_22667 (protein, listed as Saimiri boliviensis)
chain: KPGALSFADVAVYFSPEEWGCLRPAQRALYRDVMRETYGHLGALGFPGPKPALISWMEQESEAWSSAAQDPEKGESLGGAR
B19: DOMAIN_22771 (protein, listed as Ursus americanus)
chain: RPRAVKFADVAVYFSPEEWGCLRPAQRALYRDVMRETYGHLGALGFPGPKPALISWMEQESEAWSPDAQDPEEGESLGGAL
B20: DOMAIN_22710 (protein, listed as Propithecus coquereli)
chain: ESVTFEDVAVYFSENEWIGLGPAQRALYRDVMLENYGAVASLAFPFPKPALISQLERGEAPWCSAPQGALDGESPRGISSE
B21: DOMAIN_22471 (protein, listed as Papio anubis)
chain: SQESVAFEDVAVYFTTKEWAIMVPAERALYRDVMLENYEAVAFVVPPTSKPALVSHLEQGKESCFIRPQVVLSRSDWRAGL
B22: DOMAIN_23039 (protein, listed as Saimiri boliviensis)
chain: IQRLLTFGDVAVAFTRIEWRHLDAAQRALYRDVMLENYGNLVSVGLLSSKPKLIAQLEQGAEPWMEARETPSGTRAVPDYW
B23: DOMAIN_22776 (protein, listed as Propithecus coquereli)
chain: MTFEDVTVEFTPWEWGQLDPAQKDLYREVMLENFRNLASLGLPVSKPHVICQLEEGEEPCVLEREISVGAQSDLKRRPKAK
B24: DOMAIN_22430 (protein, listed as Callorhinus ursinus)
chain: FQGSVTFRDVAIDFSQEEWEWLQPAQRDLYRHVMLENYGHLVSLAGFNISKPYVVSLLEQGREPWLVKGDVRRDPFSESNG
B25: DOMAIN_621 (protein, listed as Pan paniscus)
chain: MAQCLVTFADVAIDFSQEEWACLNSAQRDLYWDVMLENYSNLVSLDLESAYENKSLPTEKNIHEIRASKRNSDRRSKSLGR
B26: DOMAIN_22462 (protein, listed as Monodelphis domestica)
chain: SQKALTFQDVAVEFTQEEWGLLEPAQKNMHRDVMLENYENFVSLGLPVPKSALIFHLERRETPWLPSGEVLRNTYPDYLVQ
B27: DOMAIN_23041 (protein, listed as Vombatus ursinus)
chain: FQESVMFEDVAVYFTQKEWADLAPAQRALYRDVMLENYGNMVSLAFPFPKPAVISKLERGEEPWGLDPQVVPNEEGLKGFP
B28: DOMAIN_22669 (protein, listed as Balaenoptera acutorostrata)
chain: TQVSVTFDDVAVTFTREEWRQLDPAQRTLYQEVMLENCRLLVSLGCPVPRPELIFQLEQGQKLWTVKEDLSRSTCPGKRYR
B29: DOMAIN_23007 (protein, listed as Lynx pardinus)
chain: AQAPLSFEDVAVSFSREEWRLLVPAQKDLYRDVMLENYRNLVSVGYQASEPDSLFQLEHGGPLWAVEGAAPRPPCPGFVLQ
B30: DOMAIN_22939 (protein, listed as Muntiacus reevesi)
chain: PQEPVTFADVAVLFTPEEWLFLDSAQKSLYRDVMLENYRNLASVGDQLCKTKMSSHMEQREELCVTERGVFPGAHLGPHLQ
B31: DOMAIN_22512 (protein, listed as Aotus trivirgatus)
chain: SKGSLMFRDVSIDFSQEEWECLDSGQMNLYKEVMLENFSNLVSVGLSSSKPAVISLLEQGREPWMVDRELTRGLCSDLESM
B32: DOMAIN_22692 (protein, listed as Propithecus coquereli)
chain: GSVMFSDVSVDFSQDEWECLDPVQRDLYREVMLENYSNLVSVGLYIPKPQVISLLEQGKEPWMVGKELTRGLCSDLESMCE
B33: DOMAIN_22742 (protein, listed as Panthera pardus)
chain: FQASVVFEDVAVNFTPEEWALLNRGQRKLYRDVMLETCRNLSAVEKQKFHSSGDLTRMQEGLLRSPLVESVCERIEGDPCG
B34: DOMAIN_22566 (protein, listed as Papio anubis)
chain: VQEPVTFKDVAVDFTQEEWGQLDLVQRTLYRDVMLETYGHLLSVGNQIAKPEVISLLEQGEEPWSVEQACPQRACPEWMRN
B35: DOMAIN_22740 (protein, listed as Panthera pardus)
chain: SYGSLSFEDVTVGFSQEEWQHLDPAQRTLYRDVMLENYSHLVAVGCCVPKPDVIFRLEQGQQPWIVEEESLDQSCPEVCKV
B36: DOMAIN_23011 (protein, listed as Cervus elaphus)
chain: RTSAFPFQAPVTFGDLAIYFSQEEWEWLSPIQKDLYEDVMLENYQNLVSLGLCFRRPNVITLLEKGKAPWMVDPVKRRRGL
B37: DOMAIN_22944 (protein, listed as Muntiacus reevesi)
chain: KPLAVRFADVAVYFSPEEWGCLLPAQRALYRDVMRETYGHLGALGFPGPKPALISWMEQESEAWSPDAQDPEEGESLGGAL

Tested on: HBEGF locus
Type: cell-based, human
Settings: high-throughput screen of dXR repression of the HBEGF gene
[1] = abundance of each domain in the library before vs after diphtheria toxin selection, listed domains met p-value <0.01 and log2(fold change) >2
[2] = change in abundance of each domain in the library before and after diphtheria toxin selection

Molecule | Log2 (fold change) [1] | Log2 (fold change) [2]
B1 | 3.0957 | 
B2 | 3.1663 | 
B3 | 2.9639 | 
B4 |  | 3.3299
B5 |  | 2.8281
B6 | 3.3586 | 
B7 | 4.0609 | 
B8 | 3.0141 | 
B9 | 3.9481 | 
B10 | 3.285 | 
B11 | 2.9754 | 
B12 | 2.8869 | 
B13 | 3.0779 | 
B14 | 3.4615 | 
B15 | 3.6131 | 
B16 | 3.1269 | 
B17 | 3.9668 | 
B18 | 3.4947 | 
B19 | 3.3498 | 

Molecule | Log2 (fold change) [1] | Log2 (fold change) [2]
B20 | 3.4387 | 
B21 | 3.6293 | 
B22 | 2.8829 | 
B23 | 2.7757 | 
B24 | 2.982 | 
B25 |  | 2.1025
B26 | 3.5597 | 
B27 | 3.6194 | 
B28 | 3.583 | 
B29 | 3.7329 | 
B30 | 3.6187 | 
B31 | 2.93 | 
B32 | 3.2791 | 
B33 | 2.9133 | 
B34 | 3.5278 | 
B35 | 2.692 | 
B36 | 3.6236 | 
B37 | 3.3908 | 
